Data taken from the supplement of paper PMC10037445.
“And” between values parts separate entries of the source, which are not always exact repeats. Equal values may be shown once. Whole data set: some 2,900 compounds, median “IRF Lucia reporter activity, fold change vs agonist alone” near 0.9, cut for the highest 2% near 2.8. Some of the results follow.

Key:
RAW-Dual [1] = experiment: IRF Lucia reporter activity, fold change vs agonist alone; higher = enhanced IRF activity; conditions: library stock concentration (final ~1000-fold dilution): 10 mM, agonist: MPLA (TLR4) […]
How it was run: (§1)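 After 50 nL of library stock was delivered by pin tool to RAW-Dual macrophages (50,000 cells/well, DMEM, 384-well plates), a PRR agonist was added 1 h later and the plates were kept at 37 °C, 5% CO2. Twenty hours later, IRF was read from supernatant by QuantiLuc luminescence and NF-κB by QuantiBlue absorbance at 620 nm. Reporter activity is stated as fold change over agonist-alone wells. Wells with IncuCyte confluency under 70% of agonist controls in both mask sets were counted as cytotoxic.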

RAW-Dual [2] = experiment: IRF Lucia reporter activity, fold change vs agonist alone; cytotoxicity flag (confluency mask): not cytotoxic; higher = enhanced IRF activity
How it was run: as §1

RAW-Dual [3] = experiment: IRF Lucia reporter activity, fold change vs agonist alone; cytotoxicity flag (confluency mask): cytotoxic (confluency <70% of control); higher = enhanced IRF activity
How it was run: as §1

[4] = cytotoxicity flag (confluency mask): not cytotoxic
[5] = agonist: 3'3'-cGAMP (STING) 10 ug/mL
[6] = cytotoxicity flag (confluency mask): cytotoxic (confluency <70% of control)

## COc1cc(C(=O)N2CCC(N3CCN(C)CC3)CC2)ccc1Nc1ncc2c(n1)N(C)c1ccccc1C(=O)N2C
RAW-Dual [1]; [4]
  IRF Lucia reporter activity: 0.18

## COc1cc(C(=O)N2CCC(N3CCN(C)CC3)CC2)ccc1Nc1ncc2c(n1)N(C)c1ccccc1C(=O)N2C (library stock concentration (final ~1000-fold dilution): 10 mM)
RAW-Dual [2]; [5]
  IRF Lucia reporter activity: 0.129
RAW-Dual [2]; agonist: LPS (TLR4) 0.1 ug/mL
  IRF Lucia reporter activity: 0.203

## C#CCC(c1nc2cc(Cl)ccc2c(=O)n1Nc1ccccc1)N(CCCN)C(=O)c1cccc(Cl)c1F (stereo unspecified) (library stock concentration (final ~1000-fold dilution): 10 mM)
RAW-Dual [3]; [5]
  IRF Lucia reporter activity: 0.0307
RAW-Dual [3]; agonist: LPS (TLR4) 0.1 ug/mL
  IRF Lucia reporter activity: 0.051

## C#CCC(c1nc2cc(Cl)ccc2c(=O)n1Nc1ccccc1)N(CCCN)C(=O)c1cccc(Cl)c1F (stereo unspecified)
RAW-Dual [1]; [6]
  IRF Lucia reporter activity: 0.0275

## COc1ccc(-c2cc(=O)c3c(O)c(OC)c(O)c(OC)c3o2)cc1
RAW-Dual [1]; [4]
  IRF Lucia reporter activity: 0.91

## COc1ccc(-c2cc(=O)c3c(O)c(OC)c(O)c(OC)c3o2)cc1 (library stock concentration (final ~1000-fold dilution): 10 mM)
RAW-Dual [2]; [5]
  IRF Lucia reporter activity: 0.681
RAW-Dual [2]; agonist: LPS (TLR4) 0.1 ug/mL
  IRF Lucia reporter activity: 0.696

## C=C1C(=O)OC2C1CCC(=C)C1CCC(=C)C12 (stereo unspecified)
RAW-Dual [1]; [6]
  IRF Lucia reporter activity: 0.952
RAW-Dual [1]; [4]
  IRF Lucia reporter activity: 0.0283

## C=C1C(=O)OC2C1CCC(=C)C1CCC(=C)C12 (stereo unspecified) (library stock concentration (final ~1000-fold dilution): 10 mM)
RAW-Dual [2]; [5]
  IRF Lucia reporter activity: 0.0138
RAW-Dual [2]; agonist: LPS (TLR4) 0.1 ug/mL
  IRF Lucia reporter activity: 0.0233
RAW-Dual [3]; [5]
  IRF Lucia reporter activity: 0.0204
RAW-Dual [3]; agonist: LPS (TLR4) 0.1 ug/mL
  IRF Lucia reporter activity: 0.0187

## O=c1cc(CO)occ1O
RAW-Dual [1]; [4]
  IRF Lucia reporter activity: 1.11

## O=c1cc(CO)occ1O (library stock concentration (final ~1000-fold dilution): 10 mM)
RAW-Dual [2]; [5]
  IRF Lucia reporter activity: 1.02
RAW-Dual [2]; agonist: LPS (TLR4) 0.1 ug/mL
  IRF Lucia reporter activity: 1.27

## Cc1cccc(-c2[nH]c(C(C)(C)C)nc2-c2ccc3c(c2)OCO3)n1
RAW-Dual [1]; [4]
  IRF Lucia reporter activity: 0.938

## Cc1cccc(-c2[nH]c(C(C)(C)C)nc2-c2ccc3c(c2)OCO3)n1 (library stock concentration (final ~1000-fold dilution): 10 mM)
RAW-Dual [2]; [5]
  IRF Lucia reporter activity: 0.925
RAW-Dual [2]; agonist: LPS (TLR4) 0.1 ug/mL
  IRF Lucia reporter activity: 0.859

## CCn1c(C(=O)N(C2CC2)C2CC2)cc2c3c(ncn3C)c(Nc3cc(C)n(C)n3)nc21
RAW-Dual [1]; [4]
  IRF Lucia reporter activity: 0.732

## CCn1c(C(=O)N(C2CC2)C2CC2)cc2c3c(ncn3C)c(Nc3cc(C)n(C)n3)nc21 (library stock concentration (final ~1000-fold dilution): 10 mM)
RAW-Dual [2]; [5]
  IRF Lucia reporter activity: 0.419
RAW-Dual [2]; agonist: LPS (TLR4) 0.1 ug/mL
  IRF Lucia reporter activity: 0.772

## COc1cccc2oc(-c3ccccc3)cc(=O)c12
RAW-Dual [1]; [4]
  IRF Lucia reporter activity: 0.94

## COc1cccc2oc(-c3ccccc3)cc(=O)c12 (library stock concentration (final ~1000-fold dilution): 10 mM)
RAW-Dual [2]; [5]
  IRF Lucia reporter activity: 0.981
RAW-Dual [2]; agonist: LPS (TLR4) 0.1 ug/mL
  IRF Lucia reporter activity: 0.95

## CC(C)NCC(O)COc1ccc(CCOCC2CC2)cc1 (stereo unspecified) (library stock concentration (final ~1000-fold dilution): 10 mM)
RAW-Dual [2]; [5]
  IRF Lucia reporter activity: 1.04 and 0.934
RAW-Dual [2]; agonist: LPS (TLR4) 0.1 ug/mL
  IRF Lucia reporter activity: 1.28 and 0.987

## CCCc1nn(C)c2c(=O)[nH]c(-c3cc(S(=O)(=O)N4CCN(C)CC4)ccc3OCC)nc12.O=C(O)CC(O)(CC(=O)O)C(=O)O
RAW-Dual [1]; [4]
  IRF Lucia reporter activity: 0.761

## CCCc1nn(C)c2c(=O)[nH]c(-c3cc(S(=O)(=O)N4CCN(C)CC4)ccc3OCC)nc12.O=C(O)CC(O)(CC(=O)O)C(=O)O (library stock concentration (final ~1000-fold dilution): 10 mM)
RAW-Dual [2]; [5]
  IRF Lucia reporter activity: 1.05
RAW-Dual [2]; agonist: LPS (TLR4) 0.1 ug/mL
  IRF Lucia reporter activity: 0.892

## Cc1c(C(=O)NN2CCCCC2)nn(-c2ccc(Cl)cc2Cl)c1-c1ccc(I)cc1
RAW-Dual [1]; [4]
  IRF Lucia reporter activity: 1.48

## Cc1c(C(=O)NN2CCCCC2)nn(-c2ccc(Cl)cc2Cl)c1-c1ccc(I)cc1 (library stock concentration (final ~1000-fold dilution): 10 mM)
RAW-Dual [2]; [5]
  IRF Lucia reporter activity: 0.956
RAW-Dual [2]; agonist: LPS (TLR4) 0.1 ug/mL
  IRF Lucia reporter activity: 0.894

## CCc1nc(N)nc(N)c1-c1ccc(Cl)cc1 (library stock concentration (final ~1000-fold dilution): 10 mM)
RAW-Dual [2]; [5]
  IRF Lucia reporter activity: 0.965
RAW-Dual [2]; agonist: LPS (TLR4) 0.1 ug/mL
  IRF Lucia reporter activity: 0.757

## CCc1nc(N)nc(N)c1-c1ccc(Cl)cc1
RAW-Dual [1]; [4]
  IRF Lucia reporter activity: 0.949

## CC12C=CC(=O)NC1CCC1C2CCC2(C)C(C(=O)Nc3cc(C(F)(F)F)ccc3C(F)(F)F)CCC12 (stereo unspecified) (library stock concentration (final ~1000-fold dilution): 10 mM)
RAW-Dual [2]; [5]
  IRF Lucia reporter activity: 1.22
RAW-Dual [2]; agonist: LPS (TLR4) 0.1 ug/mL
  IRF Lucia reporter activity: 1.38

## CC12C=CC(=O)NC1CCC1C2CCC2(C)C(C(=O)Nc3cc(C(F)(F)F)ccc3C(F)(F)F)CCC12 (stereo unspecified)
RAW-Dual [1]; [4]
  IRF Lucia reporter activity: 1.08

## Cl.Cl.OCCN1CCN(CCCN2c3ccccc3Sc3ccc(C(F)(F)F)cc32)CC1
RAW-Dual [1]; [6]
  IRF Lucia reporter activity: 1.74

## Cl.Cl.OCCN1CCN(CCCN2c3ccccc3Sc3ccc(C(F)(F)F)cc32)CC1 (library stock concentration (final ~1000-fold dilution): 10 mM)
RAW-Dual [3]; [5]
  IRF Lucia reporter activity: 0.68
RAW-Dual [3]; agonist: LPS (TLR4) 0.1 ug/mL
  IRF Lucia reporter activity: 1.95

## COc1ccc(NS(=O)(=O)c2sc3ccc(Cl)cc3c2C)cc1N1CCNCC1 (library stock concentration (final ~1000-fold dilution): 10 mM)
RAW-Dual [3]; [5]
  IRF Lucia reporter activity: 0.367
RAW-Dual [3]; agonist: LPS (TLR4) 0.1 ug/mL
  IRF Lucia reporter activity: 1.26
